Assay results from PubChem BioAssay AID1794842 (National Center for Advancing Translational Sciences (NCATS), 2023).
Hit rate of the full screen: of about 2,800 compounds, fewer than 10 were called active. Calls follow the shape of the dose curve; as a rule, active = well fitted curve in the direction sought with a large enough effect; inconclusive = small, poorly fitted or top-dose-only effect, or another doubt; inactive = no such curve, though single readings can be large or run the other way. This is one part of the list.

target: Metallo-beta-lactamase type 2 (Klebsiella pneumoniae) (UniProt C7C422); test: qHTS to identify inhibitors of the New Delhi Metallo-beta-lactamase (NDM): Meropenem screen against the machine-based learning selections.; also: % of control where 0% means no effect; conditions: Purified NDM-1, meropenem hydrolysis, absorbance 300 nm; at 38.4 µM (top of the series) unless noted
Chain of UniProt C7C422 (C7C422 whole entry, looked up): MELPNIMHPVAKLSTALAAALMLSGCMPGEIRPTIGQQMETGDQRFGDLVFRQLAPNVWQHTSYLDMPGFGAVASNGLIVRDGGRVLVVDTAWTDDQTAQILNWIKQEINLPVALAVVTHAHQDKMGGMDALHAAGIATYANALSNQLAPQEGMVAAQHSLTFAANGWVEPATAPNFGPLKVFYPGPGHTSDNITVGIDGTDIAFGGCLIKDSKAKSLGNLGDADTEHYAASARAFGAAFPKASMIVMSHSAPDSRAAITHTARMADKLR
In short: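 NDM-1 (2 nM final) in 50 mM HEPES pH 7.0, 1 uM Zn2SO4, 0.01% Tween20 was preincubated with compounds for >30 min. Nitrocefin (16.7 uM final) was read at 485 nm after 15 min, and meropenem (50 uM final) at 300 nm after 30 min.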

Activity change, negative = inhibition, inactive:
O=C(O)c1cccc(-c2n[nH]c3c2CC(=O)N(c2ccccc2)C3)c1 19.1% [at 57.5 µM]
COc1ccc(-c2nc(C(C)C)nc3c2CCN(C(=O)C2CCCC2)CC3)cc1 -2.95%
CNC(=O)Cn1nc(C(=O)N2CCCC(CO)(CC3CC3)C2)cc1C (configuration not stated) 4.54%
C=CCC1(CO)CCCN(CC(=O)NCCc2ccc(Cl)cc2)C1 (configuration not stated) -0.725%
CCOC(=O)C1CCN(Cc2ccccc2OCC(O)CN(C)C2CCCCC2)CC1 (configuration not stated) -1.16%
c1ccc2sc([C@H]3CCN(C4CCC4)C3)nc2c1 -0.754% [at 76.7 µM]
O=C(Cc1c[nH]c2ncc(-c3ccccc3F)cc12)NCc1cccnc1 0.902% [at 57.5 µM]
CNc1ncccc1C(=O)N1CC[C@@H](c2ccc3c(c2)OCO3)[C@H](O)C1 -5.73%
CC(=O)c1ccc(NC(=O)O[C@@H]2CO[C@H]3[C@@H]2OC[C@@H]3NC(=O)c2ccco2)cc1 -0.122% [at 57.5 µM]
CCn1c(CO)nnc1C1CC(NC(=O)Cc2c[nH]c3ccccc23)C1 (configuration not stated) -1.63%
O=C(c1cc(-c2ccc(O)cc2)n[nH]1)N1CCCC(CCc2ccc(F)cc2)C1 (configuration not stated) -1.21%
COc1ccccc1C(O)c1nc(Nc2ccc(Cl)cc2)n[nH]1 (configuration not stated) -1.58% [at 57.5 µM]
CC(=O)Nc1cccc(-c2ccc3ncn(Cc4ccccn4)c(=O)c3n2)c1 13.2% [at 57.5 µM]
COc1cc2c(cc1CN1CCCC(O)(CN(C)C)C1)OCCCO2 (configuration not stated) -0.852%
Cc1ccccc1C(=O)Nc1ccc([C@H]2OCC(=O)N(C)[C@@H]2CO)cc1 -0.834% [at 57.5 µM]
CCOc1ncccc1C(=O)N1CCc2[nH]nc(-c3cccc(F)c3)c2C1 0.0138%
O=C(c1csc(Cc2ccccc2)n1)N1CCC2(CCNCC2)CC1 12.3%
CCCC(C)N1CC2(CCN(C(=O)c3cc(Cl)ccc3C)CC2)OC1=O (configuration not stated) 0.824%
COC(=O)c1ccc2nc(C[C@@H]3C[C@@H](C(C)C)[C@H](CNC4CCOCC4)C=C3C)[nH]c2c1 0.291%
Cn1cncc1-c1nnc([C@H]2CCN(C(=O)c3ccncc3)C2)o1 -1.21% [at 57.5 µM]
O=C(NCC1CCCO1)c1ccnc(-c2nnc3ccc(Nc4ccccc4)nn23)c1 (configuration not stated) 6.26% [at 57.5 µM]
Cc1noc(C)c1S(=O)(=O)N1CCCN(Cc2ccncc2)C(c2ccccc2)CC(=O)NCC1 (configuration not stated) 0.0151%
Oc1ccccc1CN1CCNc2cnc(Nc3ccccc3)cc2C1 8.16% [at 57.5 µM]
O=C(c1[nH]nc2c1COc1ccccc1-2)N1CCCC(Cc2nc(C3CCOCC3)no2)C1 (configuration not stated) 6.21%
Cc1ccccc1-c1[nH]nc2ncc(-c3ccsc3)nc12 3.14% [at 76.7 µM]
CC(C)c1cccc(-c2cc(NCc3ccccn3)nc3[nH]ccc23)n1 2.88%
FC(F)(F)c1ccnc(-c2cc(NCc3ccccn3)nc3[nH]ccc23)c1 1.07%
COC(=O)C1CCN(CC(O)COc2cccc(CN3CC=C(C)CC3)c2)CC1 (configuration not stated) -0.28%
Cc1nnc2n1C(C)CN(C(=O)CCc1nc(-c3ccncc3)no1)C2 (configuration not stated) 0.268%
N#Cc1cccc(CN2CC[C@H](c3nc4ccccc4[nH]3)C2)c1 0.152% [at 57.5 µM]
CN(Cc1ccsc1)C(=O)c1ccc(C#CC(C)(C)O)o1 8.92%
COc1ccc(OC)c(CNC(=O)CC2CCOCC2)c1 -0.451%
Cc1noc2nc3c(c(C(=O)N[C@H]4CC[C@H]4NC4CCCC4)c12)CCC3 2.19%
O=C(N[C@@H]1CCOC[C@H]1OCCO)c1cc(-c2ccsc2)n[nH]1 -0.347%
Cn1ccnc1-c1ccc(N2CC[C@](C)(O)[C@@H](O)C2)nn1 11.3%
CC(C)(C)c1ccc(-c2cc(C[C@H]3CNCC[C@H]3CC(=O)NCc3cccs3)no2)cc1 -3.86%
Fc1ccc(-c2nnc3ccc(NCCc4ccccc4)nn23)nc1 13.9% [at 57.5 µM]
COc1ccccc1-c1nnc([C@H]2CCN(C3CCN(C)CC3)C2)o1 3.08% [at 57.5 µM]
Cc1ccsc1CN1CC(Oc2ccccc2C(=O)NC2CC2)C1 -4.05%
O=C(O)C1CNCCN(Cc2ccc(-c3nn[nH]n3)cc2)C1 (configuration not stated) 49.7%
COc1ccc(NC(=O)N2CCc3c(nc4cc(-c5ccccc5)[nH]n4c3=O)C2)c(OC)c1 8.8%
CN(Cc1ccc(F)cc1)C(=O)C1CCCC1 -0.602% [at 57.5 µM]
COc1ccccc1C(O)c1nc(Nc2cccc(F)c2)n[nH]1 (configuration not stated) -0.846% [at 57.5 µM]
COCCOCC1(CNC(=O)Nc2cccnc2)C[C@@H](O)[C@@H](O)C1 (some centres not stated) 50.4% [at 57.5 µM]
COc1ccc(-c2ccnc(N[C@H]3CO[C@H]4[C@@H]3OC[C@@H]4NS(=O)(=O)c3ccc(C)cc3)n2)cc1 2.73%
CCNC(=O)N1C[C@@H]2OCC(=O)N(C(C)C)[C@@H]2C1 -0.071% [at 76.7 µM]
CC1(COc2cccnc2)COc2ccc(C(=O)NC3CCC(O)CC3)cc2N1 (configuration not stated) 5.98% [at 57.5 µM]
Oc1ccccc1-c1cc(-c2cccnc2)c2cncn2c1 24.9% [at 76.7 µM]
CCOc1ccccc1NC(=O)Cn1ccn2nc(-c3ccccc3)c(CO)c2c1=O 0.561%
COc1ccc(C(=O)N[C@H]2C[C@H]3C(=O)Nc4cc(Cl)ccc4C(=O)N3C2)cc1 -1.35% [at 57.5 µM]
NS(=O)(=O)c1ccc(-n2nc(C3CCOC3)nc2C2CCC2)cc1 (configuration not stated) -2.61%
CC1(C)CN(C(=O)c2ccccc2Oc2ccccc2)CC1(C)O (configuration not stated) -0.132%
